# Test results from PubChem BioAssay AID1745845 (National Center for Advancing Translational Sciences (NCATS), 2022).
# Where “and” joins values, the source holds several entries; their conditions need not be identical. Equal entries are not always repeated. Out of some 360,000 compounds screened, about 2,600 (0.72%) were called active. Inconclusive results, whose numbers are uncertain, are shown with a selection of clear calls. Calls follow the shape of the dose curve; as a rule, active = well fitted inhibition curve with a large enough effect; inconclusive = small, poorly fitted or top-dose-only effect; inactive = no such curve, though single readings can be large or run the other way. Potencies of inconclusive entries are doubtful fits and often do not repeat.
# Assay: Primary qHTS for Inhibitors of ATXN expression; also: nearly all actives have a fitted effect of over 55% in size
# Conditions: HEK-293 ATXN2-luciferase reporter, luminescence, 24 h; activity change, negative = inhibition: at 57 µM (top of the series)
# In short: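 ATXN2-luciferase reporter cells (luciferase flanked by upstream and downstream ATXN2 gene portions) were treated 24 h at 37 °C with compounds at up to 57 uM. SteadyGlo luminescence gave expression; GF-AFC fluorescence gave viability.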
# % is scaled to controls: 0 for no effect and ±100 for the full control effect; potency is read from the fitted curve at half-maximal effect; tags tell the direction and shape of the fitted curve.
SMILES,Potency,"activity change, negative = inhibition"
COc1ccc2[nH]c3c(NCCC4=CCCCC4)ncnc3c2c1,"inconclusive: 5.32 µM [inhibitor, full curve, poor fit]",
CCSc1nnc(NC(=O)NC(CC)(C(F)(F)F)C(F)(F)F)s1,"inconclusive: 22.4 µM [inhibitor, single point]",
COc1ccccc1N(CC(=O)N/N=C(\C)c1ccccc1O)S(=O)(=O)c1ccc(C)cc1,"inconclusive: 17.8 µM [inhibitor, single point]",
C=C1C(=O)C23C(O)C1CCC2C12CCCC(C)(COC(C)=O)C1C(O)C3(O)OC2 (stereo not given),"inconclusive: 6.31 µM [inhibitor, full curve, poor fit]",
Cc1ccc(/C=N/Nc2ccc(C(=O)O)cc2)s1,active: 0.947 µM,
COc1cc(C=NNC(=O)c2ccc(NS(=O)(=O)c3cccs3)cc2)cc(Br)c1O,,inactive: -1.53%
CCc1nc2ccc(C(=O)Nc3cccc(NS(C)(=O)=O)c3)cn2c1N(CC)Cc1cccc(Br)c1,active: 28.2 µM,
O=C(N/N=C/c1ccc(O)cc1O)c1ccc(NC(=O)C2CCCCC2)cc1,active: 5.62 µM,
Cc1ccc(S(=O)(=O)Nc2cc(Cl)c(O)c3ncccc23)cc1,active: 11.2 µM,
CCOC(=O)c1c(C)n(-c2ccc(OC)cc2)c2ccc(O)c(CN(C)C)c12,"inconclusive: 14.1 µM [inhibitor, partial curve]",
COc1ccc(OC(F)(F)F)cc1CC1(C)C(=O)Nc2cccc(Cl)c21 (stereo not given),"inconclusive: 39.8 µM [inhibitor, single point]",
COc1ccc(OC)c(C(=O)/C=C/c2ccccc2C(F)(F)F)c1,"inconclusive: 25.1 µM [inhibitor, partial curve]",
COc1ccc(-c2csc3ncnc(N4CCN(c5cccc(Cl)c5)CC4)c23)cc1,"inconclusive: 39.8 µM [inhibitor, single point]",
O=C(NCc1ccccc1F)C1CCCN1S(=O)(=O)c1ccc(F)cc1 (stereo not given),,inactive: -4.01%
Cc1cc(OCC(=O)C(C)(C)C)c2c(-c3ccccc3)cc(=O)oc2c1,,inactive: -4.24%
COc1ccc(CCN=C(N)NS(=O)(=O)c2ccc(OC)c(OC)c2)cc1OC,,inactive: 8.34%
CCOC(=O)c1ccc(NC(=O)c2ccc(=O)n(Cc3cccc(C)c3)c2)cc1,"inconclusive: 25.1 µM [inhibitor, partial curve, poor fit]",
CCN1CCN(C(=O)C(C)Sc2nc3nc(C)cc(C)n3n2)CC1 (stereo not given),,inactive: 7.63%
CC(C)CN1C(=S)SC(C)(C)C1n1oc(=O)n(-c2ccc(Cl)cc2)c1=O (stereo not given),"inconclusive: 35.5 µM [inhibitor, single point]",
Cc1sc(NC(=O)/C=C/C(=O)O)c(C(N)=O)c1-c1ccc(C(C)(C)C)cc1,,inactive: -15.7%
Cc1cc(C(=O)COC(=O)CCCN2C(=O)c3ccccc3C2=O)c(C)n1C,,inactive: 10.3%
CCCCCCCCN1C(=O)[C@H](CC(=O)NCc2cccs2)C[C@@]2(C(=O)OCC)CCCC=C12,"inconclusive: 39.8 µM [inhibitor, single point]",

SMILES,Potency,"activity change, negative = inhibition"
Clc1ccc(-c2nnc(NCCN3CCCC3)c3ccccc23)cc1,"inconclusive: 15.8 µM [inhibitor, partial curve]",
Cc1ccc(Cc2c(C3CCCCC3)nc3c4ccccc4ccn23)cc1,,inactive: 145%
COc1ccc(NC(=O)Nc2ccc3c(c2)C(=O)N([C@@H](C)CO)C[C@@H](C)[C@@H](CN(C)S(=O)(=O)c2cccs2)O3)cc1,,inactive: 9.32%
CCCC(=O)NC(=S)Nc1cccc(Cl)c1N1CCCC1,"inconclusive: 35.5 µM [inhibitor, single point]",
CCCCN(C=O)c1c(CC)nc2c(OCCn3cccc3)cccn12,,inactive: -4.25%
O=C(C1CC1)N1CCN(c2ccc([N+](=O)[O-])cc2-n2cccc2)CC1,"inconclusive: 35.5 µM [inhibitor, partial curve, poor fit]",
FC(F)(F)Oc1ccccc1C(c1nnnn1C1CCCC1)N1CCN(C/C=C/c2ccccc2)CC1 (stereo not given),"inconclusive: 17.8 µM [inhibitor, partial curve, poor fit]",
OC(c1ccccc1)(c1nc(/C=C/c2ccc(C(F)(F)F)cc2)cs1)C(F)(F)F (stereo not given),"inconclusive: 28.2 µM [inhibitor, single point]",
N#Cc1c(NC(=O)CSc2ncn[nH]2)sc2c1CCCC2,"inconclusive: 0.708 µM [inhibitor, full curve]",
CC(=O)Nc1nc(C)c(-c2ccc(Cl)c(S(=O)(=O)NCCO)c2)s1,"inconclusive: 5.44 µM [inhibitor, full curve]",
CCOc1cccc(-c2c(C(=O)N/N=C/c3ccc(C)o3)nnn2-c2nonc2N)c1,,inactive: -2.23%
CCCC(=O)Nc1c(C(=O)OCC)[nH]c2ccccc12,"inconclusive: 39.8 µM [inhibitor, single point]",
Nc1c(C(=O)CSc2nnnn2-c2ccccc2)c(=O)[nH]c(=O)n1C1CC1,,inactive: -4.06%
COc1ccc(C(C)NCCC(c2ccc(OC(C)C)cc2)c2ccccc2OC)cc1 (stereo not given),"inconclusive: 5.62 µM [inhibitor, single point]",
COc1ccc(C)cc1NC(=O)c1cc2c(=O)n3cccc(C)c3nc2s1,,inactive: -1.87%
CC(=O)c1cccc(NC(=O)c2ccc(N(C)S(=O)(=O)c3ccc(C)cc3)cc2)c1,"inconclusive: 12.6 µM [inhibitor, partial curve]",
Cc1cccc(C)c1-n1ncc(C(=O)O)c1C1CCN(C(=O)OC(C)(C)C)CC1,,inactive: 8.14%
COc1ccc(NC(=O)c2ccco2)cc1NC(=O)C(C)(C)Oc1ccc(Cl)cc1,"inconclusive: 35.5 µM [inhibitor, partial curve]",
O=C(NCc1ccccc1)c1cc(C2CCCCN2C(=O)c2ccc(Cl)cc2)on1 (stereo not given),,inactive: -13.8%
CCOc1ccc(CNC(=O)C2CCCN(c3nnc(C)c4c(C)n(-c5ccccc5)nc34)C2)cc1 (stereo not given),"inconclusive: 31.6 µM [inhibitor, single point] and inconclusive: 25.1 µM [inhibitor, partial curve, poor fit]",
CC(C)(C)NC(=O)C(c1ccc(-c2ccccc2)cc1)N(C[C@H]1CC[C@@H]([C@@H]2CC[C@H](CO)O2)O1)C(=O)c1ccc2ccccc2c1 (stereo not given in full),"inconclusive: 25.1 µM [inhibitor, single point]",
CNc1ccc(Br)cc(C(=O)/C=C/c2cccc(OC)c2)c1=O,"inconclusive: 39.8 µM [inhibitor, single point]",

SMILES,Potency,"activity change, negative = inhibition"
CC(C)C[C@H](NC(=O)c1[nH]cnc1C(=O)Nc1ccc(Cl)cc1)C(=O)OC(C)(C)C,"inconclusive: 39.8 µM [inhibitor, single point]",
O=C(CN(c1ccccc1)S(=O)(=O)c1ccccc1)N1CCN(Cc2ccc3c(c2)OCO3)CC1,,inactive: -3.17%
CN(Cc1ccccc1)C(=O)c1ccc(CSc2nc3cccnc3n2Cc2ccccc2F)cc1,"inconclusive: 31.6 µM [inhibitor, single point]",
CCCCCCCCN1C(=O)[C@H](CC(=O)N2CCN(C(=O)C3CC3)CC2)C[C@@]2(C(=O)OCC)CCCC=C12,"inconclusive: 31.6 µM [inhibitor, single point]",
CCOC(=O)c1cc2c(=Cc3ccc(N(C)C)cc3)c3ccccc3n2[n+]1C,"inconclusive: 7.52 µM [inhibitor, full curve, poor fit]",
Cc1cccc(CC(=O)N2CC(=O)Nc3ccc(Br)cc3C2c2ccc(F)cc2)c1 (stereo not given),"inconclusive: 39.8 µM [inhibitor, single point]",
N=C1SC(c2ccccc2)C(=O)N1c1ncc(Cc2ccccc2Cl)s1 (stereo not given),active: 17.8 µM,
C=CC[C@H](CC(=O)N(CCO)Cc1ccccc1)C(=O)NC[C@H](OC(=O)[C@@H](CC=C)Cc1ccc(F)cc1)c1ccccc1,"inconclusive: 39.8 µM [inhibitor, single point]",
CC1C(=O)N(Cc2cn(Cc3ccco3)nn2)CCS(=O)(=O)N1Cc1ccc(-c2ccc(Cl)c(Cl)c2)cc1 (stereo not given),"inconclusive: 35.5 µM [inhibitor, single point]",
CCN(Cc1ccccc1)C(=O)C1CCN(S(=O)(=O)c2ccc3c(c2)CCCN3C(C)=O)CC1,,inactive: -9.24%
O=C(CSc1nccn1Cc1ccc(F)cc1)Nc1nc2ccccc2s1,"inconclusive: 39.8 µM [inhibitor, single point]",
CCCCC(=O)NC(c1ccccc1OC)c1ccc2cccnc2c1O (stereo not given),active: 3.98 µM,
CCC(=O)OCOc1ccc(/C=C2/CCC(CN(C)C)C2=O)cc1 (stereo not given),"inconclusive: 39.8 µM [inhibitor, single point]",
Cc1ccc(C(=O)Nc2nc(-c3ccccn3)cs2)cc1S(=O)(=O)N1CCOCC1,"inconclusive: 7.94 µM [inhibitor, full curve, poor fit]",
CN1C[C@H]2c3ccccc3Oc3ccc(Cl)cc3[C@@H]2C1,"inconclusive: 31.6 µM [inhibitor, partial curve]",
O=C(c1ccccc1)N(CCO)Cc1cc2cc3c(cc2[nH]c1=O)OCCO3,"inconclusive: 3.16 µM [inhibitor, full curve]",
OC(CNc1nc(-c2cccnc2)nc2ccccc12)c1ccccc1 (stereo not given),"inconclusive: 1.78 µM [inhibitor, partial curve]",
Cc1cccc(NC(=S)N/N=C/c2c[nH]c3ccccc23)c1,,inactive: 39.6%
CCOC(=O)N1CCC(n2c(=O)[nH]c3cc(Cl)ccc32)CC1,"inconclusive: 15.8 µM [inhibitor, partial curve]",
O=C(NCCc1ccccc1)C(c1cccs1)N(C(=O)CCl)c1ccc(Cl)cc1 (stereo not given),active: 4.47 µM,
CCCCCCCCCCCCCCCCn1cc[n+](CC(C)=O)c1,"inconclusive: 29.9 µM [inhibitor, partial curve, poor fit]",
